Values joined by “and” are separate entries in the source; they are usually repeats but may differ in a detail not shown here. Identical values can stand only once. In all, about 410,000 compounds went through this assay and about 5,000 (1.2%) were called active. Inconclusive results, whose numbers are uncertain, are shown with a selection of clear calls. Calls come from the whole dose curve; as a rule, active = well fitted inhibition curve with a large enough effect; inconclusive = small, poorly fitted or top-dose-only effect; inactive = no such curve, though single readings can be large or run the other way. Where the call is inconclusive, the potency comes from a doubtful curve fit.
test: qHTS for Inhibitors of TGF-b; details: HepG2 CAGA-GFP TGF-b/SMAD3 reporter, GFP fluorescence, 18 h, TGF-beta stimulated, 500 pg/mL final; series mostly up to 46.1 µM; activity, negative = inhibition: at the top concentration; note: nearly all actives have a fitted effect of over 65% in size
Summary of the method: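 First, reporter cells (HEPG2 CAGA-GFP) rested 2 h at 37 degrees C. Next, compounds were pinned in and TGF-beta added to 500 pg/mL final. After 18 h, GFP was imaged per cell and summed per well.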
% is set by controls: 0 for no effect and ±100 for the full control effect; potency is the fitted concentration of half-maximal effect; tags give direction and shape of the fitted curve.

Structure (SMILES) | Potency | activity, negative = inhibition
COc1cc2ccccc2cc1C(=O)Nc1ccccc1C | inconclusive: 0.631 µM [inhibitor, partial curve, poor fit] | 
CC[C@]12c3[nH]c4ccc(OC)cc4c3CCN1C(=O)C(CC(=O)NCC13CC4CC(CC(C4)C1)C3)C[C@@H]2C(=O)N1CCN(C(=O)c2ccco2)CC1 (stereo not given in full) | inconclusive: 22.4 µM [inhibitor, single point] | 
Cc1[nH]c2ccccc2c1C(=O)C(C)OC(=O)c1ccc([N+](=O)[O-])o1 (stereo not given) | inconclusive: 35.5 µM [inhibitor, single point] | 
O=C1C2C3C=CC(CO)(O3)C2C(=O)N1c1ccccc1-c1ccccc1 (stereo not given) | active: 12.6 µM | 
CCOc1ccc(Nc2c(S(=O)(=O)c3ccccc3)cnc3ccc(CC)cc23)cc1 | active: 11.2 µM | 
Cc1ccc(C(=O)c2cn(CC(=O)Nc3ccc4c(c3)OCCO4)c3nc(C)ccc3c2=O)cc1 | inconclusive: 0.794 µM [inhibitor, full curve, poor fit] | 
O=C(Nc1ccccc1Cl)N1CCCN(c2nc(-c3ccccc3)ns2)CC1 | inconclusive: 17.8 µM [inhibitor, partial curve, poor fit] | 
COc1ccc(-c2cc(C(=O)Nc3cc(OC)cc(C(=O)Nc4cccc(C(F)(F)F)c4)c3)[nH]n2)cc1 | inconclusive: 14.1 µM [inhibitor, single point] and inconclusive: 35.5 µM [inhibitor, single point] | 
O=S1(=O)CC=C(CSC(=S)NC2CCS(=O)(=O)C2)C1 (stereo not given) | inconclusive: 25.1 µM [inhibitor, single point] | 
CCCCc1ccc(NC(=O)C2CCCC2)cc1 |  | inactive: 6.85%
Cc1cccc(C)c1NC(=S)NCCc1ccc(O)c(O)c1 |  | inactive: 0.404%
CCOC(=O)c1nc(NNC(=O)c2ccc([N+](=O)[O-])cc2)sc1C | inconclusive: 22.4 µM [inhibitor, single point] | 
O=C(Nc1ncc(Cc2ccc(SC(F)F)cc2)s1)c1ccccc1 | inconclusive: 3.98 µM [inhibitor, single point] | 
Cc1cc(Nc2nc3ccccc3nc2Cl)n(-c2ccccc2)n1 |  | inactive: -11.4%
COc1ccc(-n2c(C)cc(/C=C3\SC(=O)NC3=O)c2C)cc1 |  | inactive: 0.458%
CCOc1ccccc1N1CCN(CC(=O)Nc2nccs2)CC1 |  | inactive: 0.82%
Oc1ccccc1N=Cc1c(O)ccc2ccccc12 | inconclusive: 35.5 µM [inhibitor, single point] | 
CN(Cc1ccc(Cl)cc1)C(=O)CCl | inconclusive: 22.4 µM [inhibitor, single point] | 
CCn1c(N2CCN(Cc3ccc([N+](=O)[O-])cc3)CC2)nc2ccccc21 | inconclusive: 11.2 µM [inhibitor, partial curve, poor fit] | 
COC(=O)[C@@]12CCCCN1[C@H](c1ccc(-c3ccccc3)c(OC)c1)[C@H]1C(=O)N(C)C(=O)[C@H]12 |  | inactive: -4.7%
Cc1ccc(C)c(S(=O)(=O)N2CCN(C(=O)c3ccncc3)CC2)c1 |  | inactive: -3.54%
Cc1ccc2c(c1)C(=O)C(=O)N2CCCOc1ccccc1C | inconclusive: 35.5 µM [inhibitor, single point] | 
N#CCSc1nnc(Cc2cccc3ccccc23)n1C1CCCCC1 | inconclusive: 35.5 µM [inhibitor, single point] | 

Structure (SMILES) | Potency | activity, negative = inhibition
O=C(CNc1ccc2c(c1)OCO2)N/N=C\c1cn(Cc2ccccc2)c2ccccc12 | inconclusive: 35.5 µM [inhibitor, partial curve, poor fit] | 
COc1ccc(N(CC(=O)NN=C2CCN(C)CC2)S(=O)(=O)c2ccc(NC(C)=O)cc2)cc1 |  | inactive: 12.8%
COc1ccccc1C(=O)NC(CCSC)C(=O)NNC(=O)C(C)Oc1ccccc1F (stereo not given) |  | inactive: -13.6%
COc1cc(OC)c(NC(=O)CSc2nc3ccncc3[nH]2)cc1Cl | inconclusive: 12.6 µM [inhibitor, partial curve] | 
CC1=C(C(=O)N2CCOCC2)CC(CC(=O)NCCCCc2ccccc2)C(=O)N1CCC1=CCCCC1 (stereo not given) | inconclusive: 7.08 µM [inhibitor, partial curve, poor fit] | 
CCc1c(C)nc2ncnn2c1N1CCCC(C(=O)NCc2cccs2)C1 (stereo not given) |  | inactive: -2.04%
CCC(NC(=S)NCc1ccc(F)cc1)c1ccc(C(C)C)cc1 (stereo not given) | inconclusive: 35.5 µM [inhibitor, single point] | 
COc1ccc(C2(O)CCN(CC(=O)Nc3nc(-c4ccccc4)cs3)CC2)cc1 | inconclusive: 17.8 µM [inhibitor, single point] | 
Cc1ccc(NC(=S)N(CCN(C)C)Cc2cccs2)cc1C | inconclusive: 0.112 µM [inhibitor, full curve, poor fit] | 
CCCNC(=O)Cn1nc(C)c2c(C)n(-c3ccccc3)nc2c1=O |  | inactive: -5.92%
Cc1cc(NC(=O)COC(=O)CCn2c(C)csc2=O)c([N+](=O)[O-])cc1C |  | inactive: 2.22%
COc1ccc(NC2CCCN(C(=O)c3cc4ncccn4n3)C2)cc1 (stereo not given) |  | inactive: 16.4%
CN1CCN(S(=O)(=O)c2cccc(C(=O)Nc3cc(C(F)(F)F)ccc3N3CCCCC3)c2)CC1 |  | inactive: 17.9%
COc1ccccc1N1CCN(Cc2cc(COC(C)C)c3cccnc3c2O)CC1 | active: 2.24 µM | 
Cc1cccc(OCCCn2c(=O)sc3ccccc32)c1 |  | inactive: -0.879%
CCOC(=O)C1CCCN(C(=O)Cn2nc(C)n3c(cc4c(OC)cccc43)c2=O)C1 (stereo not given) | inconclusive: 12.6 µM [inhibitor, partial curve, poor fit] | 
CCC(C)n1c(=N)c(C(=O)NC2CCCCC2)cc2c(=O)n3cc(C)ccc3nc21 (stereo not given) |  | inactive: 8.87%
N#Cc1c(SCC(N)=O)nc(-c2ccccc2)c2c1CCCC2 | inconclusive: 22.4 µM [inhibitor, single point] | 
Cn1c(N)c(C#N)c(C#N)c1-c1ccccc1 |  | inactive: 15.9%
COc1cccc(CNC(=O)C2CCCN(S(=O)(=O)c3cn(C)cn3)C2)c1 (stereo not given) |  | inactive: -0.192%
O=C(CSc1ncn[nH]1)NCc1ccc2c(c1)OCO2 | inconclusive: 20 µM [inhibitor, single point] | 
COc1ccc(C(=O)N2N=C(c3cccs3)CC2c2ccccc2O)cc1 (stereo not given) | inconclusive: 35.5 µM [inhibitor, single point] | 
